The list shows a part of the results.

This assay concerns PF3D7_0420300 AP2 domain 1 (GST-tagged). Put plainly: gcPBM binding intensity (ln(normalized median fluorescence intensity)); higher = stronger DNA binding. A digest of the protocol:
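The binding buffer was 1× PBS containing 1% milk, 0.2 mg/ml BSA, 0.5% salmon testes DNA and 0.03% Triton X-100. In it, GST-tagged P. falciparum DNA-binding domains expressed in E. coli were applied for 1 h to an Agilent 4 × 180k array of primer-extended double-stranded 36-bp intergenic genomic probes plus negative controls. Binding intensity, read with Alexa488 anti-GST antibody and a 488 nm scan, is the highest Masliner-normalised natural-log median intensity across replicate spots of either probe orientation.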
As for “AAAAAAAAAAAACATTGTACGCACATTTTATATGTC [XGTACX_site6974]”, the “gcPBM binding intensity (ln)” value was 9.24.

Regarding “AATAGAGTTGAATGCACACATACAAATTTTTAGTTT [CACACA_site3564]”, the “gcPBM binding intensity (ln)” value worked out at 9.33.

Consider “TATATATATTTTATGTGTACTCAATGTTATAACGCA [XGTACX_site8360]”, for which the “gcPBM binding intensity (ln)” value came to 9.09.

Regarding “TGCATAATTAAAAATGGTACACTGTATTTATAATAT [XGTACX_site1575]”, the “gcPBM binding intensity (ln)” value amounted to 9.22.

For “TATAAATTAAGATAACGTACATATAATAATATAAAC [XGTACX_site487]”, the “gcPBM binding intensity (ln)” value amounted to 9.66.

“TGTACACCCAGAAATGCACACACATATATATATATA [CACACA_site8716]”: the “gcPBM binding intensity (ln)” value came out at 9.7.

Take “TGTACAGTATATACAACACACATTTGTATAAATATA [CACACA_site1002]”: the “gcPBM binding intensity (ln)” value turned out to be 9.52.

“ACAAAAAAAAAAAAAAAAAAAAAAAAAAAATAATAA [CACACA_negctrl_site1640]”: the “gcPBM binding intensity (ln)” value came to 8.96.

As for “AAAATATATTAAGGCACACACATACATATTTATATA [CACACA_site7707]”, the “gcPBM binding intensity (ln)” value was 9.83.

As for “AGATCAATAATGACAAGTACACAAAATAACATTTAA [XGTACX_site6968]”, the “gcPBM binding intensity (ln)” value is 9.44.

Turning to “ATTTTGTAAAAGGTCATACACACATATTCAAAAGAA [CACACA_site2946]”, the “gcPBM binding intensity (ln)” value amounted to 9.53.

On to “CGCACCCACAGACACACACACACATATATATATATA [CACACA_site2202]”, for which the “gcPBM binding intensity (ln)” value stood at 10.2.

In the case of “AATATATATTAAATATGTACTTATTTTTTGGTTGCT [XGTACX_site3613]”, the “gcPBM binding intensity (ln)” value is 9.39.

With “AAAGAATAATTAAATACACACATATTACAGTAAAAA [CACACA_site2450]”, the “gcPBM binding intensity (ln)” value was 9.81.

Take “TACATACAGAAACACACACACACATATATATATATA [CACACA_site2919]”: the “gcPBM binding intensity (ln)” value is 10.

As for “AATATAAGCAAATACACACACACATATAAATATGTA [CACACA_site7741]”, the “gcPBM binding intensity (ln)” value is 10.2.

Turning to “TACATATATAAATATGTACACACATATGTATGATCT [CACACA_site9284]”, the “gcPBM binding intensity (ln)” value came out at 9.43.

Turning to “AAAAAAATAATATAAATAATGAAAAGATATAAATAA [GTGCAC_negctrl_site432]”, the “gcPBM binding intensity (ln)” value came out at 9.4.

“TTATTATATAAAGTTTCACACATTATTTGTTCAAAC [CACACA_site5218]”: the “gcPBM binding intensity (ln)” value was 9.13.

Regarding “ATATGAAGTATCGAATTAAGGGCAACAAATAAATTA [CACACA_negctrl_site1116]”, the “gcPBM binding intensity (ln)” value came to 9.29.

Take “TTATATATGACTAACGGTTTTTTTTTTTTTTTTTTT [CACACA_negctrl_site576]”: the “gcPBM binding intensity (ln)” value came to 9.17.

On to “ATTGAGAGAAAAAAATGTACTTGATCAAAATGGATA [XGTACX_site1649]”, for which the “gcPBM binding intensity (ln)” value is 9.22.

Regarding “TAATATCAATTTTTATGTACTTATATATATATATAT [XGTACX_site5879]”, the “gcPBM binding intensity (ln)” value is 9.31.

Consider “AGTAGTCTGGAGAAGAGTACACAGTATCTGGTAACA [XGTACX_site2032]”, for which the “gcPBM binding intensity (ln)” value amounted to 9.12.

With “GTGTATATATGTTATACACACAAAAATATTTTGTAT [CACACA_site265]”, the “gcPBM binding intensity (ln)” value is 9.53.

Consider “AAAAATCATATAGGTTGTACGGGTAGTTTATTTTAT [XGTACX_site6936]”, for which the “gcPBM binding intensity (ln)” value was found to be 9.59.

In the case of “ATTTATTAACCATATACACACATATATTTGTATTTA [CACACA_site6744]”, the “gcPBM binding intensity (ln)” value worked out at 9.69.

In the case of “ATAGTATCTGGTAGCTGTACGAGTCGTAGAGTGCAG [XGTACX_site2020]”, the “gcPBM binding intensity (ln)” value is 9.27.

“TTCCCTAATATTTGTTGTACTTGTTATATTTTTTTT [XGTACX_site5994]”: the “gcPBM binding intensity (ln)” value was 9.86.

Regarding “TATATTTGTAAGAAGAGTACTAAAAAAAGAATAAAG [XGTACX_site8704]”, the “gcPBM binding intensity (ln)” value worked out at 9.34.

Take “ATATATATATATATATGTACGTACTCAGTTATGCCT [XGTACX_site453]”: the “gcPBM binding intensity (ln)” value is 9.32.

On to “TGTTCTTATTTTATAAGCATATAATTAATCATAATG [CACACA_negctrl_site1493]”, for which the “gcPBM binding intensity (ln)” value was 9.05.

Take “ATAAGAAAAGGACACACACACAAAAAAAAAAAAAAA [CACACA_site7351]”: the “gcPBM binding intensity (ln)” value was found to be 9.84.

With “ATGTATATAATATTATGTACATATATGAAATATTTT [XGTACX_site8168]”, the “gcPBM binding intensity (ln)” value is 9.15.

With “TTTATTTATTATTGTTGTACACTTTTTATAAAAAAA [XGTACX_site5114]”, the “gcPBM binding intensity (ln)” value was found to be 9.12.

Regarding “TAGTTTTTTATAAAATTATTTATATAAAGGTAAAAA [CACACA_negctrl_site490]”, the “gcPBM binding intensity (ln)” value was 8.7.

For “AATATATTATAATATACACACATATATGCTCTTTAA [CACACA_site4131]”, the “gcPBM binding intensity (ln)” value came out at 9.49.

For “ATTTAAAAGAAATAATGTACGAATCATATTTGATAT [XGTACX_site1785]”, the “gcPBM binding intensity (ln)” value came out at 9.19.

Turning to “ATATATTATATATATTTTAAGTAATTTGCAAAAAAT [GTGCAC_negctrl_site361]”, the “gcPBM binding intensity (ln)” value amounted to 8.93.

For the sequence “ATATATATATCACGCACACACGAATTTTAAATATAT [CACACA_site5691]”, the “gcPBM binding intensity (ln)” value came out at 9.64.

As for “TTATTTTTACAATTTTAATAATAATACTAAAACAAA [XGTACX_negctrl_site538]”, the “gcPBM binding intensity (ln)” value worked out at 8.76.

“TATTGTATGGTAGGATATGATGTTATTTGTTATAAT [CACACA_negctrl_site202]”: the “gcPBM binding intensity (ln)” value was 9.45.

As to “TCTTTTGCCCAAAAAGGTACACACCACAATTTAAAT [XGTACX_site1482]”, the “gcPBM binding intensity (ln)” value was 9.29.

Consider “ATACATATATATATATGTACATATGCACATATATAC [XGTACX_site7209]”, for which the “gcPBM binding intensity (ln)” value turned out to be 9.23.

On to “ATAATATATATATATACGCACACTTATGTACGGATT [CACACA_site2120]”, for which the “gcPBM binding intensity (ln)” value amounted to 9.35.

“AACAATGTTTTCTTGTGTACACATCATTAAAGAAAA [XGTACX_site4726]”: the “gcPBM binding intensity (ln)” value was determined as 9.1.

For “TTCTATATAATTCAAACATGCACAGGAAATATTATA [TGCATGCA_site290]”, the “gcPBM binding intensity (ln)” value amounted to 9.23.

Consider “AAGAAAAAAGGGGACAAGGCATATCTATATATACAT [TGCATGCA_negctrl_site172]”, for which the “gcPBM binding intensity (ln)” value was 9.56.

“TATGTAACACATACTTGTACATATATAATTTTTTTA [XGTACX_site6251]”: the “gcPBM binding intensity (ln)” value amounted to 9.22.

Take “TAAATATTTATAAACACACAAATATTTATATTTATA [CACACA_site6166]”: the “gcPBM binding intensity (ln)” value stood at 9.17.

As to “AAATAGAGAAATACAAGTACATATCAAACCAATCTA [XGTACX_site2756]”, the “gcPBM binding intensity (ln)” value turned out to be 9.52.

As to “AGGGACATATATATCACACACAAAAATTAGTCCCTT [CACACA_site2778]”, the “gcPBM binding intensity (ln)” value is 9.67.

For the sequence “TTTATTTATTAATACACACACACACGCCCACAAAAT [CACACA_site6253]”, the “gcPBM binding intensity (ln)” value worked out at 10.2.

With “CTTATACATAAATTTTGTACACACAAAAAAAAAAAA [XGTACX_site2665]”, the “gcPBM binding intensity (ln)” value amounted to 9.39.

For “TAAAAATATAGGTATACACACATATAAATATAAATA [CACACA_site7785]”, the “gcPBM binding intensity (ln)” value amounted to 9.64.

For the sequence “GATTTTAAAATAATTACACACTTGATTATGTCCAAA [CACACA_site3491]”, the “gcPBM binding intensity (ln)” value stood at 9.31.

These data come from the supplement of paper PMC11417369.
